ChEMBL document CHEMBL4888484, “Replenishing the malaria drug discovery pipeline: Screening and hit evaluation of the MMV Hit Generation Library 1 (HGL1) against asexual blood stage Plasmodium falciparum ,using a nano luciferase reporter read-out” (2022)
In all, about 150,000 compounds went through this assay and about 540 (0.36%) showed an effect of 50% or more. This is one part of the list.

What follows are compounds tested on Plasmodium falciparum (assay: Primary screen in NF54 nanoGlo assay, in single point, at 2uM, 72h; a lower Z score goes with more inhibition). Conditions: timepoint 72 hour.
Assay type: functional, Erythrocyte
For `O=C(Cc1ccccc1Cl)N1CC[C@H](CN2CCOC2=O)C1`, the “% Inhibition” value was -6% and the Z score was 0.78. In the case of `CCc1sc(C(=O)Nc2cccc(N3CCOC3=O)c2C)cc1C`, the “% Inhibition” value is reported as -8% and the Z score is reported as 1.02. With `COCC(=O)Nc1ccc(-c2noc([C@@H]3CCCN3CC(C)(C)C)n2)cn1` the “% Inhibition” value was -10% and the Z score was 1.57. `COC1(C(F)(F)F)CN(C(=O)Nc2ccnc(C)n2)C1` was tested, and the “% Inhibition” value was -4% and the Z score was 0.74. With `CCCc1nc(C(=O)N[C@H]2C[C@H](c3nnc(CO)n3C3CC3)C2)cs1` the “% Inhibition” value was -21% and the Z score was 1.91. In the case of `NC(CC(=O)Nc1cccc(C(F)(F)F)c1)=NO`, the “% Inhibition” value is reported as 8% and the Z score is reported as -1.05. `O=C(CC1CCCCC1)Nc1cnn([C@H]2CCOC2)c1` was tested, and the “% Inhibition” value was 13% and the Z score was -1.67. In the case of `COc1cccc(F)c1[C@H](C)Nc1nc(N)c2cnn(C)c2n1`, the “% Inhibition” value is reported as 0% and the Z score is reported as -0.07. For `CCO[C@H]1COC[C@@H]1NC(=O)Nc1cccc(Cl)c1`, the “% Inhibition” value was 5% and the Z score was -0.53. In the case of `CC(C)(C)OC(=O)NCC=CCNc1ncc(Cl)cn1`, the “% Inhibition” value is reported as -14% and the Z score is reported as 1.38. With `CN1CCC[C@H](N2CCn3c(Cc4ccccc4)nnc3C2)C1=O` the “% Inhibition” value was -4% and the Z score was 0.67. In the case of `O=C(NC1CCC(C(=O)N2CCCCCC2)CC1)C1CCCC1` (stereo unspecified), the “% Inhibition” value is reported as 6% and the Z score is reported as -1.26. With `[O-][N+]1=N[C@@H]2CCCC[C@@H]2N1OCc1ccccc1` the “% Inhibition” value was -4% and the Z score was 0.52. For `Cc1[nH]c(C)c(S(=O)(=O)N2CCC(C(=O)N3CCN(C4CCCCC4)CC3)CC2)c1C(=O)N1CCCCC1`, the “% Inhibition” value was 1% and the Z score was -0.1. With `CCOC(=O)C(=O)Nc1nnc(C(CC)CC)s1` the “% Inhibition” value was -5% and the Z score was 0.92. In the case of `O=C1[C@@H](n2ncnc2-c2ccccc2Cl)CCN1CC(F)(F)F`, the “% Inhibition” value is reported as -2% and the Z score is reported as 0.32. `CC[C@H](O)Cn1nc(CC2CC2)nc1-c1cc(C)oc1C` was tested, and the “% Inhibition” value was -9% and the Z score was 1.21. For `COc1ccccc1N1C[C@]23C=C[C@H](O2)C(C(=O)Nc2ccc(OC(F)(F)F)cc2)C3C1=O` (stereo partly specified), the “% Inhibition” value was -22% and the Z score was 3.39. `Cc1cc(-c2cc(C(F)(F)F)cc(C(F)(F)F)c2)c(=O)[nH]c1C` was tested, and the “% Inhibition” value was -1% and the Z score was 0.24. With `NC(=O)c1ccc(COc2ccc3c(c2)CCC3=O)cc1` the “% Inhibition” value was 32% and the Z score was -1.4. For `O=C(NC1CC1)c1ccc(N2CC[C@H](NCc3ccc(F)c(F)c3)C2)nc1`, the “% Inhibition” value was -17% and the Z score was 1.67. In the case of `C[C@@H](c1nnnn1C1CC1)N1CCC(n2ccnc2)CC1`, the “% Inhibition” value is reported as 3% and the Z score is reported as -0.5. In the case of `COc1cc(C(=O)Nc2cccc(Oc3ccccc3C(N)=O)c2)ccc1OC(F)F`, the “% Inhibition” value is reported as -1% and the Z score is reported as 0.12. With `CCN(CC)c1ccc2nnc(CCC(=O)Nc3cccnc3)n2n1` the “% Inhibition” value was -14% and the Z score was 2.31. `O=C(Cn1nnc2ccccc21)N(Cc1cccnc1)C1(C(=O)Nc2ccc3c(c2)OCO3)CCCC1` was tested, and the “% Inhibition” value was 5% and the Z score was -0.59. `CCC1(N2CCCCC2)CCN(c2nc(N)nc(C(F)(F)F)n2)CC1` was tested, and the “% Inhibition” value was 27% and the Z score was -3.13. For `COCCS(=O)(=O)Nc1c(F)c(F)cc(F)c1F`, the “% Inhibition” value was -12% and the Z score was 1.58. `FC(F)(F)C1CCC(Cn2nnnc2C2CCOCC2)CC1` (stereo unspecified) was tested, and the “% Inhibition” value was -8% and the Z score was 1.25. With `CCCn1c(N2CCC[C@H](C(=O)NC3CC3)C2)nc2ccccc21` the “% Inhibition” value was -17% and the Z score was 2.72. In the case of `CC(C)(C#N)NCc1ccc(Cl)cc1`, the “% Inhibition” value is reported as -18% and the Z score is reported as 3.34. In the case of `COc1ccc(-c2nc(C)c(C(=O)Nc3n[nH]c(CC(C)C)n3)s2)cc1OC`, the “% Inhibition” value is reported as 15% and the Z score is reported as -2.32. `O=C1CCN(Cc2cc(C#CCO)cs2)CCN1Cc1cscn1` was tested, and the “% Inhibition” value was -4% and the Z score was 0.53. `COCCn1c([C@H](C)NC(=O)c2cc(-c3ccc(OC)c(OC)c3)n[nH]2)nc2ccccc21` was tested, and the “% Inhibition” value was 7% and the Z score was -1.03. For `CN(C)c1ccc(C(=O)Nc2nnc(C3CC3)s2)cc1`, the “% Inhibition” value was -4% and the Z score was 0.71. With `CC(C)(C)OC(=O)N1CCc2[nH]nc(N)c2C1` the “% Inhibition” value was -6% and the Z score was 0.74. With `CN(CC1COc2ccccc2O1)C(C(=O)O)c1ccsc1` (stereo unspecified) the “% Inhibition” value was -13% and the Z score was 2.51. With `CCN(C(=O)c1nc2nccc(C)n2n1)c1ccc(C(F)(F)F)cc1` the “% Inhibition” value was -11% and the Z score was 1.78. In the case of `COc1ccccc1[C@@H](O)Cn1cc(C(=O)Nc2cccc(Cl)c2F)nn1`, the “% Inhibition” value is reported as -11% and the Z score is reported as 2.05. In the case of `COc1ccccc1CN1C(=O)O[C@H]2CN(Cc3sccc3C)C[C@H]21`, the “% Inhibition” value is reported as -13% and the Z score is reported as 2.67. With `C#CCC(C)(C)COC(=O)c1ccnc(C)c1` the “% Inhibition” value was -2% and the Z score was 0.25. For `CC(C)(C)[C@H]1CCc2c(sc(NC(=O)C3(F)C(F)(F)C(F)(F)C(F)(F)C(F)(F)C3(F)F)c2C#N)C1`, the “% Inhibition” value was 77% and the Z score was -6.03. `CN1CCc2ncnc(N[C@H]3CC[C@H](Nc4ccccn4)CC3)c2C1` was tested, and the “% Inhibition” value was -12% and the Z score was 2.28. In the case of `COc1cccc(CN2CC(CN(C(=O)c3ccc(F)cc3)C(C)C)C(c3cccc(C(F)(F)F)c3)C2)c1` (stereo unspecified), the “% Inhibition” value is reported as -7% and the Z score is reported as 1.09. In the case of `CC(C)n1nnnc1CN[C@H]1CC(C)(C)OC1(C)C`, the “% Inhibition” value is reported as -18% and the Z score is reported as 1.49. In the case of `C[C@H]1Cc2cc(CNC(=O)c3[nH]nc4c3CCC4)ccc2O1`, the “% Inhibition” value is reported as -3% and the Z score is reported as 0.56. For `O=C(Nc1cccc(C#Cc2ccccn2)c1)NC1CCCC1O` (stereo unspecified), the “% Inhibition” value was -9% and the Z score was 1.09. With `N#Cc1ccc(CN[C@@]2(CO)CCOc3ccccc32)cc1` the “% Inhibition” value was -2% and the Z score was 0.37. In the case of `CN=C(NCc1ccc(OC(C)C)c(F)c1)NCc1ccccn1`, the “% Inhibition” value is reported as 2% and the Z score is reported as -0.26. `O=C(c1coc(COc2cccc(C(F)(F)F)c2)n1)N1CCN2CCC[C@H]2C1` was tested, and the “% Inhibition” value was -22% and the Z score was 1.96. `CN(CCc1ccccc1)C[C@@H]1OC[C@H](NC(=O)C2CCCC2)[C@H]1O` was tested, and the “% Inhibition” value was -5% and the Z score was 0.79. `CN(C)S(=O)(=O)N1CCO[C@@H](CC(c2ccccc2)c2ccccc2)C1` was tested, and the “% Inhibition” value was -6% and the Z score was 0.73. For `Cc1ccc(-n2nc3c(N4CCN(C(=O)Nc5cccc(C)c5C)CC4)nnc(C)c3c2C)cc1`, the “% Inhibition” value was -3% and the Z score was 0.36. `CCN1CCC(CC(=O)NCCCn2cc(Cl)cn2)CC1` was tested, and the “% Inhibition” value was -14% and the Z score was 1.86. In the case of `CC(C)CCC(=O)NCC(=O)N[C@@H](C)c1csc(C(C)C)n1`, the “% Inhibition” value is reported as -9% and the Z score is reported as 0.99. With `COc1cc2c(cc1CNC(=O)CN(c1ccc3c(c1)OCCCO3)S(C)(=O)=O)OCCCO2` the “% Inhibition” value was -8% and the Z score was 1.15. In the case of `COc1ccc(-c2cc3nccc(-c4cccnc4)n3n2)cc1`, the “% Inhibition” value is reported as -7% and the Z score is reported as 0.89. In the case of `O=C(CCN1CCC[C@H](CN2CCN(c3ccccn3)CC2)C1)N1CCN(c2ccccn2)CC1`, the “% Inhibition” value is reported as -4% and the Z score is reported as 0.56. In the case of `Cc1cccc(NC(=O)NC(=O)CN(C)CC(=O)Nc2ccc(Br)cn2)c1C`, the “% Inhibition” value is reported as 6% and the Z score is reported as -0.83. In the case of `O=C1CNCCN1[C@H]1CCCN(c2ccnc3ccncc23)C1`, the “% Inhibition” value is reported as -8% and the Z score is reported as 0.97. With `CC(C)CN(CC(C)C)C(=O)c1ccc(C(=O)N(CC(C)C)CC(C)C)nc1` the “% Inhibition” value was -38% and the Z score was 4.52. `C=CCc1ccccc1OCCN(C)Cc1nc(C)ccc1O` was tested, and the “% Inhibition” value was -5% and the Z score was 0.89. With `CCCCOC(=O)N1CCC[C@@]2(CCC(=O)N(CCc3ccccc3)C2)C1` the “% Inhibition” value was -1% and the Z score was 0.16. In the case of `O[C@@H]1COCCN(CCOc2ccc(F)cc2)C1`, the “% Inhibition” value is reported as -12% and the Z score is reported as 1.5. `CCOc1cccc(C(=O)N2CCN(CC3CC3)[C@@H]3CS(=O)(=O)C[C@@H]32)c1` was tested, and the “% Inhibition” value was -14% and the Z score was 1.4. For `CC1(C)Cc2[nH]ncc2CN(C(=O)Nc2ccccc2N2CCCCC2=O)C1`, the “% Inhibition” value was -10% and the Z score was 1.34. For `CC(C)(C)c1nnnn1C1CCCCC1O` (stereo unspecified), the “% Inhibition” value was 0% and the Z score was 0.06. In the case of `CCOc1ccc(C(=O)N2CCn3cncc3C2)cc1`, the “% Inhibition” value is reported as -6% and the Z score is reported as 1.19. `CN(C)CC(=O)Nc1cnccc1OC(C)(C)C` was tested, and the “% Inhibition” value was -2% and the Z score was 0.42. `CCc1ccsc1C(=O)N(CC#N)CC#N` was tested, and the “% Inhibition” value was 8% and the Z score was -1.34. `O=c1c2ccccc2nc(-c2ccc3ccccc3c2)n1Cc1ccc2c(c1)OCO2` was tested, and the “% Inhibition” value was -9% and the Z score was 1.69. `CC(C)c1ccc(C(=O)N[C@H]2CCC(=O)NC2)cc1Cl` was tested, and the “% Inhibition” value was -5% and the Z score was 0.53. In the case of `O=C(Cn1[nH]c2ccccc2c1=O)NC(Cc1ccccc1)[C@H]1C[C@H](O)C1` (stereo partly specified), the “% Inhibition” value is reported as -19% and the Z score is reported as 1.69. With `O=C1CNC(=O)N1CC(=O)N1CC[C@@](O)(c2ccccc2)[C@H]2CCCC[C@@H]21` the “% Inhibition” value was -4% and the Z score was 0.72. `CCN1CC(C(=O)N2CCNC(=O)CC2c2ccccc2)CC1=O` (stereo unspecified) was tested, and the “% Inhibition” value was 0% and the Z score was 0.02. For `O=C1c2cccnc2CN1CCN1CCc2ccccc21`, the “% Inhibition” value was -20% and the Z score was 2.31. `CCN(CC)C(=O)N1CCC([C@H](O)C(F)(F)F)CC1` was tested, and the “% Inhibition” value was -14% and the Z score was 1.69. In the case of `COCc1cc(=O)n(CC(=O)Nc2ccccc2Cl)c(N2CCCC2)n1`, the “% Inhibition” value is reported as -5% and the Z score is reported as 0.71. With `O=C(C1CC1c1ccccc1)n1nnc2ccccc21` (stereo unspecified) the “% Inhibition” value was -9% and the Z score was 1.35. For `NC(=O)Cn1cc(C(=O)Nc2ccc(Cc3nnc4n3CCC4)cc2)nn1`, the “% Inhibition” value was -3% and the Z score was 0.44. For `CC1CCN(c2nc(-c3c[nH]c4ccccc34)cs2)CC1`, the “% Inhibition” value was -18% and the Z score was 1.48. With `CC1=C[C@@H](CNS(C)(=O)=O)[C@H](C(C)C)C[C@H]1Cc1nnc(-c2ccncc2)o1` the “% Inhibition” value was -7% and the Z score was 1.1. In the case of `Cc1nn(C)c(C)c1CCC(=O)N(Cc1ccc(OCc2ccccc2)cc1)c1ccccc1`, the “% Inhibition” value is reported as -7% and the Z score is reported as 1.35. With `C[C@H](Oc1cnc2ccccc2c1)C(=O)NCc1cccnc1N1CCCC1` the “% Inhibition” value was -3% and the Z score was 0.38.
